The list shows a part of the results. These are noisy estimates, calculated here from bound and input reads.
Target: T1, Pho4 (S. cerevisiae) (UniProt P07270)
T1 sequence: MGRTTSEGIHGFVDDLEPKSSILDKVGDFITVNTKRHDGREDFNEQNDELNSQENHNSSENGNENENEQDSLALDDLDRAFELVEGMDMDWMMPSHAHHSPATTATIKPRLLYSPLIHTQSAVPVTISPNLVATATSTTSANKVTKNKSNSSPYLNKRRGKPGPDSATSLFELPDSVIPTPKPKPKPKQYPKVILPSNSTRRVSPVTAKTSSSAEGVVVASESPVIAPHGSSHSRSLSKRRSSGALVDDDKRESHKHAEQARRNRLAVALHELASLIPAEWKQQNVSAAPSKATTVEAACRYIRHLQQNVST
Test: relative binding free energy (BET-seq); higher = weaker binding
Conditions: reference: library average

Sequence	relative binding free energy
CGTTTCACGTGTTTTG	1.05 kJ/mol
GCGTTCACGTGAAGGT	1.84 kJ/mol
TATTGCACGTGTGCGA	0 kJ/mol
TTGTGCACGTGATGTC	0 kJ/mol
GTAGGCACGTGATTTG	0.167 kJ/mol
TATGGCACGTGTGGAC	-0.544 kJ/mol
ATATTCACGTGTACTG	1 kJ/mol
CTCTGCACGTGGATGT	0.46 kJ/mol
GGCAGCACGTGTAGTG	-0.126 kJ/mol
TTTGTCACGTGGCCTG	0.0418 kJ/mol
GAAGGCACGTGAAGGA	0.962 kJ/mol
TGAGGCACGTGGTCTA	-0.962 kJ/mol
GGCATCACGTGTGTTG	1.34 kJ/mol
GTTCGCACGTGTATAT	0.586 kJ/mol
ATCGTCACGTGTGTAA	0.126 kJ/mol
CTTGTCACGTGTTATT	0.418 kJ/mol
CATGGCACGTGAGGCG	0.377 kJ/mol
TAGGGCACGTGTCGAG	-0.167 kJ/mol
AGTCACACGTGTGGTG	0.335 kJ/mol
TGTTTCACGTGAGATA	1.72 kJ/mol
AGTGCCACGTGTTGAT	-0.293 kJ/mol
GCTTTCACGTGGCTGT	1.13 kJ/mol
AGTAACACGTGTTGTT	-0.251 kJ/mol

Sequence	relative binding free energy
TTGTGCACGTGAAAGA	0.879 kJ/mol
ATAGACACGTGTATGT	-0.209 kJ/mol
TTCGTCACGTGGTTAC	0.46 kJ/mol
GAGGTCACGTGGGATT	0.46 kJ/mol
GTGAACACGTGAGATT	1.09 kJ/mol
TGATTCACGTGAGTTT	2.22 kJ/mol
CCGGGCACGTGGGCGG	-1.21 kJ/mol
TTATGCACGTGTATTT	0.209 kJ/mol
AAGTACACGTGTATGA	0.753 kJ/mol
GGGAGCACGTGAGCAT	0.669 kJ/mol
TGTGCCACGTGGCGAG	-0.753 kJ/mol
TGTTTCACGTGGCTAG	0.92 kJ/mol
TAAGGCACGTGGTACG	-1.17 kJ/mol
TTTATCACGTGCATGG	0.628 kJ/mol
AGATTCACGTGATTGA	1.17 kJ/mol
TTTATCACGTGGCATG	0.586 kJ/mol
GATTGCACGTGTAATG	0.418 kJ/mol
CAATGCACGTGGTTGT	-0.167 kJ/mol
ATGGTCACGTGGTAGC	0.46 kJ/mol
TGTGCCACGTGGTGCA	-0.544 kJ/mol
TAATTCACGTGTTTAA	1 kJ/mol
TCGTTCACGTGTTCGT	0.92 kJ/mol
GTAGGCACGTGGTTCA	-0.669 kJ/mol

Sequence	relative binding free energy
CGTAGCACGTGTTATT	-0.0837 kJ/mol
TTCATCACGTGTAGCG	1.88 kJ/mol
TATAACACGTGAGTTG	0.628 kJ/mol
GTGCACACGTGTGTCG	1 kJ/mol
GTTGCCACGTGAGGGC	0 kJ/mol
GTAGTCACGTGATACG	1.09 kJ/mol
TCGATCACGTGAAGTG	1.59 kJ/mol
CAGTGCACGTGATGTG	0.126 kJ/mol
GGGCTCACGTGGTGAT	0.795 kJ/mol
ATTGTCACGTGATTGC	0.586 kJ/mol
GGGTGCACGTGATATA	-0.126 kJ/mol
TGTTTCACGTGTCAAT	1.46 kJ/mol
TTTGGCACGTGGTGCC	-1.17 kJ/mol
TGATTCACGTGCTGAT	0.837 kJ/mol
ACTGGCACGTGGTTGC	-0.628 kJ/mol
AGAATCACGTGGAAGT	1 kJ/mol
AGTTGCACGTGCGGGA	0.126 kJ/mol
TGAAGCACGTGGGTCA	-0.837 kJ/mol
CTGGGCACGTGATGAT	0.0418 kJ/mol
AATGTCACGTGAATTT	0.628 kJ/mol
ATGTACACGTGTGTGC	1.26 kJ/mol
GTAGGCACGTGTGACT	0.167 kJ/mol
TATGACACGTGTTTGA	-0.251 kJ/mol

Sequence	relative binding free energy
AACTACACGTGTGGGT	0.586 kJ/mol
GGTCTCACGTGTGTTG	0.711 kJ/mol
AAGTTCACGTGGAAGG	1.42 kJ/mol
ATTAGCACGTGTGTTA	-0.126 kJ/mol
GGGCGCACGTGGTGCT	-0.879 kJ/mol
GTATACACGTGAGAGT	1.72 kJ/mol
CCGGGCACGTGTGATT	0.418 kJ/mol
GGGTACACGTGTTGAT	0.46 kJ/mol
GATTTCACGTGTTGTT	1.46 kJ/mol
GCTTGCACGTGGGAAG	-0.0418 kJ/mol
TTTGTCACGTGGTGTA	0.209 kJ/mol
ATTATCACGTGAGGTT	1.51 kJ/mol
GGTGTCACGTGCATGA	0.46 kJ/mol
TGTGACACGTGATCTG	0.209 kJ/mol
CTGTACACGTGTAGGT	0.335 kJ/mol
AAGTTCACGTGGTTTT	1.42 kJ/mol
AGGGACACGTGGCTGA	0.293 kJ/mol
GGAGTCACGTGCGGTT	0.335 kJ/mol
AGTTCCACGTGTGTGT	-0.0837 kJ/mol
TGGGCCACGTGGAGGG	-0.544 kJ/mol
TGTTGCACGTGATTCT	-0.377 kJ/mol
TGTATCACGTGGCTTA	0.209 kJ/mol
TGTAGCACGTGTTGAC	-0.544 kJ/mol

Sequence	relative binding free energy
TGGGGCACGTGAGCTT	0.0837 kJ/mol
GGACGCACGTGAGGGT	0.335 kJ/mol
GTCTGCACGTGGATGA	0.753 kJ/mol
TGTTTCACGTGATTTA	1.17 kJ/mol
TGTGGCACGTGGTATC	-0.837 kJ/mol
GAGTTCACGTGAAGTA	2.18 kJ/mol
GTTGACACGTGTTTAG	0.335 kJ/mol
ATTCGCACGTGTTTAG	-0.293 kJ/mol
GATACCACGTGGGCGG	-0.251 kJ/mol
TTGGCCACGTGTGCTT	0 kJ/mol
TTGATCACGTGCTGCG	0.837 kJ/mol
GGAGGCACGTGCCGGG	-0.335 kJ/mol
TGTTGCACGTGTTCAG	0.0418 kJ/mol
CTGTTCACGTGGTGAA	0.544 kJ/mol
TTTCTCACGTGCTAGG	0.879 kJ/mol
ACGTTCACGTGAGGGC	1.63 kJ/mol
ATCGACACGTGGGGGC	-0.711 kJ/mol
GGCTGCACGTGCGTTG	0.0418 kJ/mol
ACGGGCACGTGGGGGT	-1.05 kJ/mol
TTTCTCACGTGTTTGC	1.34 kJ/mol
GGTAACACGTGCGTTT	0.0837 kJ/mol
AGCTTCACGTGTGCGT	0.46 kJ/mol
ATGATCACGTGACGTT	1 kJ/mol

Reference: the BET-seq Pho4 binding data (Le et al. 2018)
